# Part of at least one peptide drawing is inferred or uncertain, most often the ends. Square brackets hold non-standard residues; d marks the D form. Peptide text beside a SMILES is read from it. pGlu = O=C1CC[C@@H](C(=O)O)N1
# Tests used:
# Sprague-Dawley rats = experiment: rat blood pressure assay; type: in vivo; settings: for Blood Pressure Decrease: anesthetized rats, mean of 4 replications
# Mongrel dogs = experiment: dog blood pressure assay; type: in vivo; settings: for Maximum Decrease in Blood Pressure: mean of 4 replications; for Blood Pressure Decrease: anesthetized dogs, injection
smiles,measurement,setting,value
N=C(N)NCCC[C@H](NC(=O)[C@H](Cc1ccccc1)NC(=O)[C@@H]1CCCN1C(=O)[C@H](CO)NC(=O)[C@H](Cc1ccccc1)NC(=O)CNC(=O)[C@@H]1CCCN1C(=O)[C@@H]1CCCN1C(=O)[C@H](CCCNC(=N)N)NC(=O)[C@@H](N)CCCCN)C(=O)O,hypotensive effect compared with bradykinin,"Sprague-Dawley rats; rat blood pressure assay, result in words",even more hypotensive than bradykinin itself
CC[C@H](C)[C@H](NC(=O)[C@H](Cc1c[nH]c2ccccc12)NC(=O)[C@@H]1CCCN1C(=O)[C@H](CCCNC(=N)N)NC(=O)[C@H](CCCCN)NC(=O)CNC(=O)[C@@H]1CCC(=O)N1)C(=O)N[C@@H](CC(C)C)C(=O)O [Xenopsin] ([pGlu]GKRPWIL-OH),Maximum Decrease in Blood Pressure,"Mongrel dogs; dogs, dose 3 × 10^-9 moles/kg",32 mmHg
CC(C)[C@H](NC(=O)[C@@H]1CCCN1C(=O)[C@H](CCCNC(=N)N)NC(=O)[C@H](CCCNC(=N)N)NC(=O)[C@H](CCCCN)NC(=O)[C@H](CCCCN)NC(=O)CN)C(=O)N[C@@H](CCCCN)C(=O)O [CIP fragment] (H-GKKRRPVK-OH),Blood Pressure Decrease,Sprague-Dawley rats; dose 10.0 μg/kg,1 mmHg
same,Blood Pressure Decrease,Sprague-Dawley rats; dose 50.0 μg/kg,18 mmHg
same,Blood Pressure Decrease,Sprague-Dawley rats; dose 100.0 μg/kg,35 mmHg
same,Blood Pressure Decrease,Sprague-Dawley rats; dose 300.0 μg/kg,38 mmHg
CSCC[C@H](NC(=O)[C@H](CC(C)C)NC(=O)CNC(=O)[C@H](Cc1ccccc1)NC(=O)[C@H](Cc1ccccc1)NC(=O)[C@H](CCC(N)=O)NC(=O)[C@H](CCC(N)=O)NC(=O)[C@@H]1CCCN1C(=O)[C@H](CCCCN)NC(=O)[C@@H]1CCCN1C(=O)[C@@H](N)CCCNC(=N)N)C(N)=O [Substance P],Maximum Decrease in Blood Pressure,"Mongrel dogs; dogs, dose 5 × 10^-10 moles/kg",50 mmHg
CC(C)C[C@H](NC(=O)[C@@H]1CCCN1C(=O)[C@H](Cc1ccccc1)NC(=O)[C@H](C)NC(=O)[C@H](CCC(=O)O)NC(=O)[C@H](C)NC(=O)[C@H](CO)NC(=O)[C@H](CCC(=O)O)NC(=O)[C@H](CC(=O)O)NC(=O)[C@H](CCC(=O)O)NC(=O)[C@H](C)NC(=O)CNC(=O)[C@H](CC(N)=O)NC(=O)[C@@H]1CCCN1C(=O)[C@H](Cc1ccc(O)cc1)NC(=O)[C@@H](NC(=O)[C@H](CCCCN)NC(=O)[C@@H](NC(=O)[C@@H]1CCCN1C(=O)[C@H](CCCNC(=N)N)NC(=O)[C@H](CCCNC(=N)N)NC(=O)[C@H](CCCCN)NC(=O)[C@H](CCCCN)NC(=O)CNC(=O)[C@@H](NC(=O)[C@@H]1CCCN1C(=O)[C@H](CCCCN)NC(=O)CNC(=O)[C@H](Cc1c[nH]c2ccccc12)NC(=O)[C@H](CCCNC(=N)N)NC(=O)[C@@H](N)Cc1ccccc1)C(C)C)C(C)C)C(C)C)C(=O)N[C@@H](CCC(=O)O)C(=O)O [CIP] (H-FRWGKPVGKKRRPVKVYPNGAEDESAEAFPLE-OH),Blood Pressure Decrease,Mongrel dogs; dose 0.1 μg/kg,7 mmHg
same,Blood Pressure Decrease,Mongrel dogs; dose 0.5 μg/kg,10 mmHg
same,Blood Pressure Decrease,Mongrel dogs; dose 1.0 μg/kg,19 mmHg
same,Blood Pressure Decrease,Mongrel dogs; dose 2.0 μg/kg,21 mmHg
same,hypotension when administered to dogs,"Mongrel dogs; dogs, result in words",dose-related hypotension
CC[C@H](C)[C@H](NC(=O)[C@H](Cc1ccc(O)cc1)NC(=O)[C@@H]1CCCN1C(=O)[C@H](CCCNC(=N)N)NC(=O)[C@@H](N)CCCNC(=N)N)C(=O)N[C@@H](CC(C)C)C(=O)O [Neurotensin (8-13)],Blood Pressure Decrease,Sprague-Dawley rats; dose 0.1 μg/kg,0 mmHg
same,Blood Pressure Decrease,Sprague-Dawley rats; dose 1.0 μg/kg,13 mmHg
same,Blood Pressure Decrease,Sprague-Dawley rats; dose 3.0 μg/kg,48 mmHg
same,Blood Pressure Decrease,Sprague-Dawley rats; dose 10.0 μg/kg,63 mmHg
C[C@@H](O)[C@H](N)C(=O)N[C@@H](CCCCN)C(=O)N1CCC[C@H]1C(=O)N[C@@H](CCCNC(=N)N)C(=O)O [Tuftsin] (H-TKPR-OH),Blood Pressure Decrease,Sprague-Dawley rats; dose 1000.0 μg/kg,1 mmHg
same,Blood Pressure Decrease,Sprague-Dawley rats; dose 3000.0 μg/kg,12 mmHg
same,Blood Pressure Decrease,Sprague-Dawley rats; dose 5000.0 μg/kg,30 mmHg
same,Blood Pressure Decrease,Sprague-Dawley rats; dose 9000.0 μg/kg,46 mmHg
